In PubChem BioAssay AID624418 (National Center for Advancing Translational Sciences (NCATS), 2012):
Screen size: about 410,000 compounds; about 530 (0.13%) were called active. Inconclusive means that the source gave no clear call. Such entries were picked first, then a sample of the others. Calls follow the shape of the dose curve; as a rule, active = well fitted inhibition curve with a large enough effect; inconclusive = small, poorly fitted or top-dose-only effect, or another doubt; inactive = no such curve, though single readings can be large or run the other way. A potency beside an inconclusive call is a rough fit, not a confirmed value.
% is scaled to controls: 0 for no effect and ±100 for the full control effect; potency is read from the fitted curve at half-maximal effect.

Test: qHTS of GLP-1 Receptor Inverse Agonists: Cytotox Screen
Settings: HEK293 cAMP-luciferase reporter cells, luminescence, 24 h; activity change, negative = inhibition: at 38.3 µM (top of the series) unless noted
Text: The overall goal of this project was to develop a novel assay for discovering small molecule ligands for class B1 G protein-coupled receptors (GPCRs). Very few agonists (or inverse agonists) with generally weak activity for this entire group of physiologically important receptors are known to date. To establish proof-of-principle that this critical bottleneck can be overcome with a suitable screening approach, our studies focused on the class B1 receptor for glucagon-like peptide-1 (GLP-1R), a potential therapeutic target for diabetes and neurodegenerative disease.
The assay was developed using a cell-based functional readout. Toward this goal, stably transfected HEK293 cell clones were established that co-express (i) a cAMP-responsive luciferase reporter gene, and (ii) constitutively active GLP-1R that upon ligand interaction inhibit (inverse agonists) the luciferase activity. In addition, two control cell lines were developed: (i) one that express only the cAMP-responsive reporter gene to enable initial exclusion of GLP-1R independent effects of candidate probes; and (ii) one with the reported gene cloned with another constitutively active orphan receptor GPR119 to enable exclusion of GLP-1R independent inhibitor effects of candidate inverse agonists.
To that end, this assay was optimized for 1536-well format and screened against the MLSMR. Then the same collection was run in this cytotoxicity assay where inhibition was the undesired outcome.
NIH Molecular Libraries Probe Production Network [MLPCN]
NIH Chemical Genomics Center [NCGC]
PI Name: Martin Beinborn, Tufts Medical Center
Six ul of cell suspension (200 cells/uL in DMEM + 10% Nu serum + 1% pen-strep) is dispensed in a white solid 1536-well plate. The plates are incubated for 12 hours at 37 deg C at 5% CO2 followed by addition of 23 nL compounds. After 24 hr incubation at 37 deg C and 5% CO2, 3 uL of luciferase assay detection reagent is added. A luminescence read is obtained on the PerkinElmer Viewlux after 12 min incubation at room temperature.
For `COc1cccc(NC(=O)CSc2nc(=O)[nH]c3c2CCCC3)c1`, the “activity change, negative = inhibition” value was inactive: -0.182%. In the case of `CN(C)CCCN(C(=O)c1ccc2c(c1)CCCC2)c1nc2cc3c(cc2s1)OCO3`, the Potency is reported as inconclusive: 31.6 µM [inhibitor, single point]. For `CN(Cc1ccccc1)C(=O)c1csc([C@@H]2O[C@H](CO)[C@H](O)[C@H](O)[C@H]2O)n1`, the “activity change, negative = inhibition” value was inactive: -5.23%. In the case of `CC(C)CC(NC(=O)c1ccc(Cl)cc1)C(=O)OCC(=O)c1ccc2c(c1)NC(=O)CO2` (stereo not drawn), the Potency is reported as inconclusive: 10 µM [inhibitor, single point]. With `Cc1ccc(-c2[nH]ncc2CNCCc2cnn(-c3ccccc3)c2)cc1C` the Potency was inconclusive: 12.6 µM [inhibitor, single point]. With `COc1ccc(C(=O)NC2CC2)cc1OC1CCN(Cc2cc(C)cc(C)c2)CC1` the Potency was inconclusive: 28.2 µM [inhibitor, single point]. With `CC(C(=O)NCc1ccccc1)n1ccc2cc(S(=O)(=O)N3CCCC3)ccc21` (stereo not drawn) the “activity change, negative = inhibition” value was inactive: 1.66%. With `Cc1onc(-c2c(Cl)cccc2Cl)c1C(=O)N1CCc2ccccc2C1` the Potency was inconclusive: 20 µM [inhibitor, single point]. With `Cc1nc(CC(=O)Nc2ccc(C(N)=O)cc2)cs1` the “activity change, negative = inhibition” value was inactive: -6.78%. In the case of `Cc1ccc(C(=O)CC2(O)C(=O)N(CCc3ccccc3)c3ccc(Br)cc32)cc1` (stereo not drawn), the Potency is reported as inconclusive: 20 µM [inhibitor, partial curve, poor fit]. For `Cc1nc(-c2ccccn2)nc(SCC(=O)c2ccccc2)c1Cl`, the Potency was inconclusive: 2.24 µM [inhibitor, partial curve, poor fit]. With `N=C1SCC(=O)N1c1ncc(Cc2cccc(Cl)c2)s1` the Potency was inconclusive: 8.91 µM [inhibitor, partial curve, poor fit]. With `O=C(O)c1ccccc1NS(=O)(=O)c1ccc(NNC(=S)Nc2ccc(OC(F)F)cc2)c([N+](=O)[O-])c1` the Potency was inconclusive: 8.91 µM [inhibitor, single point]. With `CCC(C(=O)Nc1cc(C)cc(C)n1)c1ccccc1` (stereo not drawn) the Potency was inconclusive: 14.1 µM [inhibitor, single point]. With `Oc1c(Cl)cc(Cl)c2cccnc12` the Potency was inconclusive: 1.78 µM [inhibitor, full curve, poor fit]. For `CCNC(=S)N/N=C(\C)c1ccc2ccccc2c1OC(F)F`, the Potency was inconclusive: 4.47 µM [inhibitor, full curve]. For `COC(=O)c1c(NC(=O)C(=O)NCC2CCCO2)sc2c1CC(C)(C)OC2` (stereo not drawn), the Potency was inconclusive: 28.2 µM [inhibitor, single point]. In the case of `CN(C)S(=O)(=O)n1cnc([C@H]2c3c(ncn3Cc3ccccc3)C[C@H]3COC(=O)[C@@H]32)c1`, the Potency is reported as inconclusive: 0.501 µM [inhibitor, full curve, poor fit].
